“And” between values parts separate entries of the source, which are not always exact repeats. Equal entries are not always repeated. About 16,000 (7.3%) of roughly 220,000 compounds were called active. This list was built around the results that the source calls inconclusive (neither active nor inactive); the mix of calls is not that of the screen. Calls come from the whole dose curve; as a rule, active = well fitted inhibition curve with a large enough effect (not every such curve was filed as active); inconclusive = small, poorly fitted or top-dose-only effect, or another doubt; inactive = no such curve, though single readings can be large or run the other way. Potencies beside an inconclusive call are fits to weak or partial responses and may not hold up.
biological target: Aldehyde dehydrogenase 1A1 (Homo sapiens) (UniProt P00352); assay: qHTS Assay for Inhibitors of Aldehyde Dehydrogenase 1 (ALDH1A1); details: Purified ALDH1A1, NADH fluorescence, propionaldehyde substrate; series mostly up to 75.3 µM; activity, negative = inhibition: at the top concentration;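 for activity, negative = inhibition: plate controls were no enzyme wells and a reference inhibitor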
Sequence of UniProt P00352 (P00352 whole entry, looked up): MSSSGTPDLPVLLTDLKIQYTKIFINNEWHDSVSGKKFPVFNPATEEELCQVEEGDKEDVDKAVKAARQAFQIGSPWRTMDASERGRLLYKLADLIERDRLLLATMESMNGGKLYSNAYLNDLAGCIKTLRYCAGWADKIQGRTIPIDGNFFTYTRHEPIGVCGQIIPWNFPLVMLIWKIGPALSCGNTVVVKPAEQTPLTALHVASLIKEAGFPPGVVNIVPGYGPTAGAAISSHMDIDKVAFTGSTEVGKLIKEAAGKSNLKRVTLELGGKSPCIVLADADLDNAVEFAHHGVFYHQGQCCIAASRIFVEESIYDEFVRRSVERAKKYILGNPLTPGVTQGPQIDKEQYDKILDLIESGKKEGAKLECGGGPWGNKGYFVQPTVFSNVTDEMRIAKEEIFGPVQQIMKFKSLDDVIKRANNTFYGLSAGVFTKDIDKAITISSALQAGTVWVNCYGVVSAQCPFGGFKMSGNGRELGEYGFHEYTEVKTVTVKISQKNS
Potency is the fitted concentration of half-maximal effect; tags give direction and shape of the fitted curve.

Row | Compound | Potency | activity, negative = inhibition
1 | COc1ccc(NC(=O)C(c2cc3c(cc2[N+](=O)[O-])OCO3)N2CCN(C=O)CC2)cc1 (stereo not drawn) | inconclusive: 25.1 µM [inhibitor, single point] | 
2 | Cc1nc2cc(N3CCN(C)CC3)c(NC(=O)Cc3ccccc3)cc2c(=O)n1Cc1ccccc1 | active: 17.8 µM | 
3 | Cc1nc(C)c2c(=O)cc(-c3ccccc3)[nH]c2n1 | inconclusive: 39.8 µM [inhibitor, single point] | 
4 | S=C(Nc1ccccc1)c1nc2ccccc2s1 |  | inactive: -10.9%
5 | O=C(c1ccncc1)c1ccc(N2CCN(C3CC(=O)N(Cc4cccs4)C3=O)CC2)cc1 (stereo not drawn) | inconclusive: 39.8 µM [inhibitor, single point] | 
6 | O=C(Nc1ccc(Cl)cc1)/C(=C/c1cccc(O)c1)c1nc2ccccc2s1 |  | inactive: -10.7%
7 | O=C(Nc1ccccc1N1CCCCC1)c1ncoc1-c1ccc(F)cc1 | inconclusive: 37.7 µM [inhibitor, single point] | 
8 | Cn1c(-c2ccc(=O)[nH]c2)nc2ccccc21 | inconclusive: 31.6 µM [inhibitor, partial curve] | 
9 | COc1cc(OC)cc(C(=O)Nc2ccc(S(=O)(=O)N(C)C)cc2)c1 | inconclusive: 39.8 µM [inhibitor, single point] | 
10 | Cc1ccc(-c2cc(C#N)c(=O)n(Cc3c(Cl)cccc3Cl)c2)cc1 | inconclusive: 28.2 µM [inhibitor, single point] | 
11 | N#Cc1ccc(-c2ccc(F)cc2)nc1SCC(=O)Nc1sc2c(c1C#N)CCC2 | active: 25.1 µM | 
12 | O=C1c2ccccc2C(=O)N1CCC(c1ccccc1)c1ccco1 (stereo not drawn) | inconclusive: 39.8 µM [inhibitor, single point] | 
13 | C[C@@H](C(=O)Cc1ccc2ccccc2c1)[C@@H]1C[C@@]1(C)[C@@H](NP(=O)(c1ccccc1)c1ccccc1)c1ccccc1 |  | inactive: 4.79%
14 | COc1ccc(CCNC(=O)CNCC2CCCO2)cc1OC (stereo not drawn) | inconclusive: 44.7 µM [inhibitor, single point] | 
15 | O=C(Cn1c2ccccc2c(=O)c2ccccc21)N/N=C/c1ccc(N2CCCC2)c([N+](=O)[O-])c1 | inconclusive: 37.7 µM [inhibitor, partial curve, poor fit] | 
16 | COC(=O)c1cc(C(=O)OC)cc(-n2c(C)cc(C(=O)COC(=O)CNS(=O)(=O)c3ccc(C)cc3)c2C)c1 | inconclusive: 44.7 µM [inhibitor, single point] | 
17 | CC1CN(C(=S)NC(=O)c2ccco2)CC(C)O1 (stereo not drawn) | inconclusive: 39.8 µM [inhibitor, single point] | 
18 | COc1ccc(-n2c(=O)c(-c3cn(C)c4ccccc34)nc3cnc(OC)nc32)cc1 | inconclusive: 39.8 µM [inhibitor, single point] | 
19 | CCOC(=O)c1c(NC(=O)c2cc(CC(C)C)on2)sc(C(C)=O)c1C | inconclusive: 31.6 µM [inhibitor, single point] | 
20 | CN1CCCCc2c1nc1c(c2N)CCCC1 | inconclusive: 39.8 µM [inhibitor, single point] | 
21 | COc1ccc(Nc2nc(C)nc3c2nnn3Cc2ccccc2)cc1OC | inconclusive: 35.5 µM [inhibitor, partial curve] | 
22 | O=C(C/C=N/OCc1c(Cl)cccc1Cl)c1ccccc1 | inconclusive: 39.8 µM [inhibitor, single point] | 
23 | COc1ccc(-c2nnc3n(CCc4ccccc4)c(=O)c4ccccc4n23)cc1OC | active: 1.78 µM | 

Row | Compound | Potency | activity, negative = inhibition
24 | O=C(CCSc1ccc(Cl)cc1)NN=C1CCCCCC1 | active: 11.2 µM | 
25 | CCOC(=O)c1cc(-c2ccc(OC)cc2)nc2c1c(C)nn2CCC#N | inconclusive: 28.2 µM [inhibitor, partial curve] | 
26 | c1ccc(-c2cccc(N3CC4(CCNCC4)C3)c2)cc1 | inconclusive: 39.8 µM [inhibitor, single point] | 
27 | CCC(=O)c1c(NCCc2ccccc2)cc(C)oc1=O | inconclusive: 15.8 µM [inhibitor, partial curve, poor fit] | 
28 | Cc1cc(NCCCN2CCOCC2)n2ncc(-c3ccc(Cl)cc3)c2n1 | inconclusive: 25.1 µM [inhibitor, partial curve] | 
29 | O=C(c1ccccc1)N1CCN(c2ncnc3c2cnn3-c2ccccc2)CC1 | inconclusive: 10 µM [inhibitor, partial curve] | 
30 | O=C1CC(N2CCc3ccccc32)C(=O)N1c1ccc(F)cc1 (stereo not drawn) |  | inactive: 6.01%
31 | Cc1cc(=S)cc(C)n1CCO | inconclusive: 39.8 µM [inhibitor, single point] | 
32 | COc1ccc(OC)c2[nH]c(=O)c(CCNS(=O)(=O)c3ccc(Cl)cc3)cc12 | inconclusive: 31.6 µM [inhibitor, partial curve] | 
33 | O=S(=O)(Nc1cccc2cccnc12)c1ccc(S(=O)(=O)N2CCCC2)cc1 | inconclusive: 22.4 µM [inhibitor, partial curve] | 
34 | Cc1ccc(NC(=S)NNC(=O)c2nnn(-c3ccccc3)c2C)cc1 | inconclusive: 35.5 µM [inhibitor, single point] | 
35 | COC(=O)C(C)Oc1ccc2c(-c3cccc([N+](=O)[O-])c3)cc(=O)oc2c1 (stereo not drawn) | inconclusive: 35.5 µM [inhibitor, single point] | 
36 | COc1ccc(-c2nsc3c(N4CCCC4)ncnc23)cc1 |  | inactive: 4.26%
37 | COc1ccc(-c2cc(C(=O)Nc3sc4c(c3C#N)CCCC4)c3ccccc3n2)cc1 | inconclusive: 35.5 µM [inhibitor, single point] | 
38 | CCOC(=O)c1sc2nc(NC(=O)C3CC3)sc2c1C | inconclusive: 22.4 µM [inhibitor, partial curve] | 
39 | COc1cc2c(cc1NC(=O)COC(=O)[C@@H](NS(=O)(=O)c1cccc(Cl)c1)C(C)C)oc1ccccc12 | inconclusive: 39.8 µM [inhibitor, single point] | 
40 | CCOC(=O)C1CCN(C(=O)CSCc2nc(-c3ccc(OCC)cc3)oc2C)CC1 | inconclusive: 35.5 µM [inhibitor, single point] | 
41 | O=C(CN1CCN(c2ccccc2)CC1)Nc1nnc(-c2ccccc2)s1 |  | inactive: -7.93%
42 | O=C1/C(=C/c2cccc3ccccc23)CCCc2ccccc21 | inconclusive: 39.8 µM [inhibitor, single point] | 
43 | CC(C)(C)C(=O)NC(=S)Nc1sc2c(c1C#N)CCCCC2 | active: 22.4 µM | 
44 | CCCC(=O)N1CCCC(c2nc(-c3cccs3)no2)C1 (stereo not drawn) |  | inactive: -4.62%
45 | [O-]/C(=C(\C(=S)Nc1cccc2ccccc12)[n+]1ccccc1)c1cccs1 | inconclusive: 17.8 µM [inhibitor, partial curve] | 
46 | CC1=C(C(=O)Nc2ccccc2Cl)C(c2ccc(N(C)C)cc2)NC(=O)N1 (stereo not drawn) | inconclusive: 25.1 µM [inhibitor, partial curve] | 

Row | Compound | Potency | activity, negative = inhibition
47 | Cc1ccccc1S(=O)(=O)c1cc2ccccc2nc1N | inconclusive: 35.5 µM [inhibitor, single point] | 
48 | N#CCCn1c(=O)c(-c2ccc(Cl)cc2)nc2cnc(OCc3ccccc3)nc21 | inconclusive: 20 µM [inhibitor, partial curve] | 
49 | O=C(CCC(=O)N(CC(=O)NC1CCCCC1)Cc1cccs1)Nc1ccccn1 | inconclusive: 28.2 µM [inhibitor, single point] | 
50 | O=C(CSCCN1C(=O)c2ccccc2C1=O)Nc1ccc2ccccc2c1 |  | inactive: -14.2%
51 | CN1c2ccccc2C(O)=C(C(=S)Nc2ccc(Cl)cc2)S1(=O)=O | inconclusive: 39.8 µM [inhibitor, single point] | 
52 | O=C(NCC1OCCc2ccccc21)c1ccco1 (stereo not drawn) | active: 7.94 µM | 
53 | CCCN1CCN(C(=O)c2nn(-c3ccc(OC)cc3)c(=O)c3c2c2ccccc2n3C)CC1 |  | inactive: -0.188%
54 | NC(=O)[C@@H]1CCCN1Cc1nc(-c2cccs2)no1 |  | inactive: -0.993%
55 | COCOc1cc(OC)ccc1C(=O)/C=C/c1cccc(C(F)(F)F)c1 |  | inactive: -4.07%
56 | CC(C)NC(=O)COc1ccc2c(c1)C(=O)CC(C)(C)O2 | inconclusive: 31.6 µM [inhibitor, partial curve] | 
57 | O=C(c1cccc(F)c1)N1CCC2(CCCN(c3ccc(-c4ccccc4)cc3)C2)CC1 |  | inactive: 1.34%
58 | NS(=O)(=O)c1ccc(-n2cccc2C=O)cc1 |  | inactive: -2.05%
59 | Fc1ccc(N/N=C2/CCSc3sccc32)c(F)c1 | active: 18.9 µM | 
60 | CN1C(=O)C2(c3ccccc31)N(C)CC(c1ccccn1)C21SC(=S)N(Cc2ccco2)C1=O (stereo not drawn) | inconclusive: 3.16 µM [inhibitor, partial curve] | 
61 | CC(C)(C)C(=O)CN1C2=NCCN2c2ccccc21 | inconclusive: 44.7 µM [inhibitor, single point] | 
62 | Cc1noc(C)c1S(=O)(=O)N1CCN(C(c2ccccc2)c2ccc(Cl)cc2)CC1 (stereo not drawn) | inconclusive: 15.8 µM [inhibitor, partial curve] | 
63 | COc1ccc(-c2nnn(CC(=O)NCc3cccs3)n2)cc1OC | inconclusive: 37.7 µM [inhibitor, single point] | 
64 | NC(=O)C1CCN(c2oc(-c3ccccc3F)nc2S(=O)(=O)c2ccc(Cl)cc2)CC1 | inconclusive: 12.6 µM [inhibitor, partial curve] | 
65 | Cc1cc(Oc2ccc(OCC(N)=O)nn2)nc(Cl)n1 |  | inactive: 1.86%
66 | O=C(CSc1ccc2ccccc2n1)Nc1ccc(N2CCOCC2)cc1 | inconclusive: 39.8 µM [inhibitor, single point] | 
67 | O=C(O)c1ccc2nc(-c3ccccc3)c(-c3ccccc3)nc2c1 | inconclusive: 28.2 µM [inhibitor, partial curve] and inconclusive: 31.6 µM [inhibitor, partial curve] | 
68 | CSc1nnc(-c2cccc(C)c2)n1N |  | inactive: 3.65%

Reference: PubChem BioAssay AID1030 (National Center for Advancing Translational Sciences (NCATS), 2008)
